Experimental data reported in ChEMBL document CHEMBL4888484, “Replenishing the malaria drug discovery pipeline: Screening and hit evaluation of the MMV Hit Generation Library 1 (HGL1) against asexual blood stage Plasmodium falciparum ,using a nano luciferase reporter read-out” (2022).
About 540 (0.36%) of roughly 150,000 compounds showed an effect of 50% or more. The list shows a part of the results.

The compounds below were run on Plasmodium falciparum (assay: Primary screen in NF54 nanoGlo assay, in single point, at 2uM, 72h; a lower Z score goes with more inhibition). Conditions: timepoint 72 hour.
Type: functional, Erythrocyte

Compared with COC(=O)[C@](C)(NCc1nc2ccccc2o1)c1cc(F)ccc1F, CCC(NC(=O)Cc1ccncc1)C(O)c1c(F)cccc1F (centres undefined) is higher in “% Inhibition” value: 2% for the first, 5% for the second.

Going from Cc1cc(C)nc(Cn2ccnc2-c2oc3ccccc3c2C)n1 to Cc1csc(CNC(=O)c2nnc3nc(C)cc(C)n23)n1, the “% Inhibition” value falls from 17% to 7%.

Going from O=c1ccc(-c2ccccn2)nn1CC1CC2(CCC2)C1 to O=C(NCc1cccnc1)[C@]1(F)CCCN(S(=O)(=O)c2cccc3nsnc23)C1, the “% Inhibition” value falls from 0% to -10%.

Compared with CC[C@@H](C(=O)NC(C)C)c1ccccc1, CCn1c([C@H](O)c2ccccc2)n[nH]c1=O is lower in “% Inhibition” value: -4% for the first, -5% for the second.

First: CCOCc1nc(-c2ccc(-n3cccn3)cc2)n(C2CCN(C)CC2)n1
Second: Nc1nccc(N2CCC(n3nccc3NC(=O)c3cccc(F)c3)CC2)n1
The “% Inhibition” value of the first is higher: 0% for the first, -3% for the second.

Compared with CC(C)CCNC(=O)c1nc(-c2ccc3c(c2)OCC(=O)N3C)no1, Cc1cc(C(=O)NCc2ccc(-c3ccc4c(c3)CCO4)cc2)on1 is higher in “% Inhibition” value: -16% for the first, -4% for the second.

Going from Cc1ccc(N2C[C@@H](C(=O)Nc3ccccc3C(=O)NCCc3ccccc3)CC2=O)cc1 to O[C@@H](Cc1ccccc1)c1ncnn1CCc1ccccc1, the “% Inhibition” value falls from 12% to -10%.

First: CCOc1ncccc1-c1cn(C(C)C)nc1C
Second: COc1ccc(CN2CC=C[C@@H]2C(C)C)cc1F
The “% Inhibition” value of the first is lower: -7% for the first, 4% for the second.

Going from CCC1(CC)C(NC(=O)C2CCC(C(=O)O)CC2)C(C)C1OC (centres undefined) to O=C(CC(=O)N1CCC(Cc2ccccc2)CC1)N1CCC(Cc2ccccc2)CC1, the “% Inhibition” value falls from -3% to -11%.

Going from Cc1ccc2c(c1)C[C@@H](C(=O)NCCc1csc(-c3ncccn3)n1)N2 to CS(=O)(=O)N(Cc1csc(-c2cccs2)n1)C1CCN(C(=O)c2ccccc2)CC1, the “% Inhibition” value falls from 3% to -16%.

First: O=C(Nc1ccc(Oc2nncc3ccccc23)cc1)c1ccon1
Second: COc1ccc(Oc2cn[nH]c2-c2ccc(OCc3ccc(Cl)c(Cl)c3)cc2O)cc1
The “% Inhibition” value of the first is higher: 28% for the first, -2% for the second.

Going from COc1cccc(-n2cc(NC(=O)[C@@]3(C)CCC(=O)NC3)nn2)c1 to COc1ccc(C[C@@H]2NC(=O)[C@H](C)NC2=O)cc1, the “% Inhibition” value falls from 13% to -13%.

Compared with COc1ccc2c(c1)Cc1c-2nc(N)c(C#N)c1-c1ccncc1, COc1ccc2c(O)nn(S(=O)(=O)C[C@H]3CCCO3)c2c1 is lower in “% Inhibition” value: -2% for the first, -13% for the second.

Going from CC(C)N1CCN(C(=O)c2cnn(-c3ncc4c(n3)-c3ccccc3CCC4)c2C2CC2)CC1 to O=C(c1cn2c3c(cccc3c1=O)CCC2)N1CCN(c2ccccc2F)CC1, the “% Inhibition” value falls from 19% to -1%.

Going from FC(F)(F)c1cccc(Nc2c3ccccc3nc3ccccc23)c1 to Cc1cccc(Oc2nc3ccccc3n3c(=O)n(CC(=O)Nc4ccc5c(c4)OCCO5)nc23)c1C, the “% Inhibition” value falls from 10% to -2%.

First: CC(C)C[C@H]1CCCCCN1C(=O)c1cc(OC(F)F)n(C)n1
Second: O=C(c1csc2c1CCCC2)N1CCCCC1
The “% Inhibition” value of the first is lower: 12% for the first, 16% for the second.

Compared with CN(CC1OCc2ccccc2CO1)C1CCCCC1, CC1CCN(c2nnc(-n3cccc3CN3CCCC3)s2)CC1 is lower in “% Inhibition” value: -3% for the first, -5% for the second.

Going from c1ccc(-c2nc([C@H]3CCOC3)no2)c(-c2nnn[nH]2)c1 to O=C(c1ccc(F)cc1)N1CCC(c2nc(-c3ccc4c(c3)OCO4)no2)CC1, the “% Inhibition” value falls from -11% to -13%.

Going from CC(C)c1cc(NS(=O)(=O)c2cncc(Cl)c2)on1 to O=C(C[C@@H]1NC(=O)NC1=O)N[C@@H]1C[C@H]1c1cccc(Cl)c1, the “% Inhibition” value rises from -8% to -4%.

First: CC1(C)CC(O)(C(=O)NCCCc2nc[nH]n2)C1
Second: O=C(c1ccon1)N1CCc2ncnc(N3CCC[C@H](CO)C3)c2CC1
The “% Inhibition” value of the first is higher: 5% for the first, -11% for the second.

Going from OC[C@H]1C=C[C@@H](NCc2cccc(Cl)c2)C1 to CCCCCC(=O)N(CC(=O)N(Cc1ccccc1)Cc1cccn1Cc1cccc(OC)c1)[C@@H](C)CC, the “% Inhibition” value falls from -2% to -8%.

First: COC(=O)[C@](C)(NCc1nc2ccccc2o1)c1cc(F)ccc1F
Second: CCC(NC(=O)Cc1ccncc1)C(O)c1c(F)cccc1F (centres undefined)
The Z score of the first is higher: -0.24 for the first, -0.93 for the second.

First: Cc1cc(C)nc(Cn2ccnc2-c2oc3ccccc3c2C)n1
Second: Cc1csc(CNC(=O)c2nnc3nc(C)cc(C)n23)n1
The Z score of the first is lower: -2.15 for the first, -1.07 for the second.

Compared with O=c1ccc(-c2ccccn2)nn1CC1CC2(CCC2)C1, O=C(NCc1cccnc1)[C@]1(F)CCCN(S(=O)(=O)c2cccc3nsnc23)C1 is higher in Z score: -0.03 for the first, 0.85 for the second.

Compared with CC[C@@H](C(=O)NC(C)C)c1ccccc1, CCn1c([C@H](O)c2ccccc2)n[nH]c1=O is lower in Z score: 0.76 for the first, 0.66 for the second.

Compared with CCOCc1nc(-c2ccc(-n3cccn3)cc2)n(C2CCN(C)CC2)n1, Nc1nccc(N2CCC(n3nccc3NC(=O)c3cccc(F)c3)CC2)n1 is higher in Z score: -0.05 for the first, 0.42 for the second.

Compared with CC(C)CCNC(=O)c1nc(-c2ccc3c(c2)OCC(=O)N3C)no1, Cc1cc(C(=O)NCc2ccc(-c3ccc4c(c3)CCO4)cc2)on1 is lower in Z score: 1.88 for the first, 0.47 for the second.

First: Cc1ccc(N2C[C@@H](C(=O)Nc3ccccc3C(=O)NCCc3ccccc3)CC2=O)cc1
Second: O[C@@H](Cc1ccccc1)c1ncnn1CCc1ccccc1
The Z score of the first is lower: -1.47 for the first, 2 for the second.

Going from CCOc1ncccc1-c1cn(C(C)C)nc1C to COc1ccc(CN2CC=C[C@@H]2C(C)C)cc1F, the Z score falls from 1.27 to -0.73.

Going from CCC1(CC)C(NC(=O)C2CCC(C(=O)O)CC2)C(C)C1OC (centres undefined) to O=C(CC(=O)N1CCC(Cc2ccccc2)CC1)N1CCC(Cc2ccccc2)CC1, the Z score rises from 0.32 to 1.38.

First: Cc1ccc2c(c1)C[C@@H](C(=O)NCCc1csc(-c3ncccn3)n1)N2
Second: CS(=O)(=O)N(Cc1csc(-c2cccs2)n1)C1CCN(C(=O)c2ccccc2)CC1
The Z score of the first is lower: -0.5 for the first, 2.07 for the second.

Compared with O=C(Nc1ccc(Oc2nncc3ccccc23)cc1)c1ccon1, COc1ccc(Oc2cn[nH]c2-c2ccc(OCc3ccc(Cl)c(Cl)c3)cc2O)cc1 is higher in Z score: -3.76 for the first, 0.23 for the second.

Going from COc1cccc(-n2cc(NC(=O)[C@@]3(C)CCC(=O)NC3)nn2)c1 to COc1ccc(C[C@@H]2NC(=O)[C@H](C)NC2=O)cc1, the Z score rises from -2.46 to 1.28.

Going from COc1ccc2c(c1)Cc1c-2nc(N)c(C#N)c1-c1ccncc1 to COc1ccc2c(O)nn(S(=O)(=O)C[C@H]3CCCO3)c2c1, the Z score rises from 0.23 to 1.81.

First: CC(C)N1CCN(C(=O)c2cnn(-c3ncc4c(n3)-c3ccccc3CCC4)c2C2CC2)CC1
Second: O=C(c1cn2c3c(cccc3c1=O)CCC2)N1CCN(c2ccccc2F)CC1
The Z score of the first is lower: -2.37 for the first, 0.18 for the second.

First: FC(F)(F)c1cccc(Nc2c3ccccc3nc3ccccc23)c1
Second: Cc1cccc(Oc2nc3ccccc3n3c(=O)n(CC(=O)Nc4ccc5c(c4)OCCO5)nc23)c1C
The Z score of the first is lower: -0.85 for the first, 0.22 for the second.

First: CC(C)C[C@H]1CCCCCN1C(=O)c1cc(OC(F)F)n(C)n1
Second: O=C(c1csc2c1CCCC2)N1CCCCC1
The Z score of the first is lower: -2.31 for the first, -1.86 for the second.

Compared with CN(CC1OCc2ccccc2CO1)C1CCCCC1, CC1CCN(c2nnc(-n3cccc3CN3CCCC3)s2)CC1 is lower in Z score: 0.61 for the first, 0.52 for the second.

Compared with c1ccc(-c2nc([C@H]3CCOC3)no2)c(-c2nnn[nH]2)c1, O=C(c1ccc(F)cc1)N1CCC(c2nc(-c3ccc4c(c3)OCO4)no2)CC1 is lower in Z score: 2.34 for the first, 2.29 for the second.

Going from CC(C)c1cc(NS(=O)(=O)c2cncc(Cl)c2)on1 to O=C(C[C@@H]1NC(=O)NC1=O)N[C@@H]1C[C@H]1c1cccc(Cl)c1, the Z score falls from 0.95 to 0.62.

First: CC1(C)CC(O)(C(=O)NCCCc2nc[nH]n2)C1
Second: O=C(c1ccon1)N1CCc2ncnc(N3CCC[C@H](CO)C3)c2CC1
The Z score of the first is lower: -0.8 for the first, 1.82 for the second.

Compared with OC[C@H]1C=C[C@@H](NCc2cccc(Cl)c2)C1, CCCCCC(=O)N(CC(=O)N(Cc1ccccc1)Cc1cccn1Cc1cccc(OC)c1)[C@@H](C)CC is higher in Z score: 0.3 for the first, 1.08 for the second.
